The whole screen tested about 220,000 compounds, of which about 2,300 (1%) were called active. The inconclusive results got no clear call from the source; some entries with a clear call stand among them for comparison. Calls come from the whole dose curve; as a rule, active = well fitted inhibition curve with a large enough effect; inconclusive = small, poorly fitted or top-dose-only effect, or effect the other way; inactive = no such curve, though single readings can be large or run the other way. Potencies of inconclusive entries are left out as doubtful fits.
The molecules below were run against Neuropeptide S receptor (Homo sapiens) (UniProt Q6W5P4) (assay: qHTS Assay for Antagonists of the Neuropeptide S Receptor: cAMP Signal Transduction). Details: CHO-NPSR cells, cAMP TR-FRET, antagonist mode; activity change, negative = inhibition: at 38.3 µM (top of the series) unless noted.
% is set by controls: 0 for no effect and ±100 for the full control effect; potency is the fitted concentration of half-maximal effect; tags give direction and shape of the fitted curve.
Note: nearly all actives have a fitted effect of over 50% in size.

UniProt Q6W5P4, sequence (Q6W5P4 whole entry, looked up): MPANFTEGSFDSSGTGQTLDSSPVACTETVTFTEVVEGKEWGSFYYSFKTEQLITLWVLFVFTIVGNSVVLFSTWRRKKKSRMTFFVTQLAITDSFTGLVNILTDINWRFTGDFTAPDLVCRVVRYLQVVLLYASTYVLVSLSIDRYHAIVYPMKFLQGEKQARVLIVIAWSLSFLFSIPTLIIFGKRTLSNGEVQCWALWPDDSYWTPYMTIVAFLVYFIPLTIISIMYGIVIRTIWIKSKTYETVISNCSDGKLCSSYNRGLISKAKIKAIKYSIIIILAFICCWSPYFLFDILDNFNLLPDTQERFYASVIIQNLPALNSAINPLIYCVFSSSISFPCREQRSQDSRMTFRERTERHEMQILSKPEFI

| Compound | Potency | activity change, negative = inhibition |
| --- | --- | --- |
| COc1cc2cc3c(N)c(C(=O)NCc4ccco4)sc3nc2cc1OC | inactive |  |
| O=C(c1ccccc1)n1nc(-c2ccccc2)nc1NCc1ccco1 | inconclusive [inhibitor, partial curve] |  |
| FC(F)(F)c1cnc(Oc2ccccc2-c2nnc(-c3ccc(Cl)cc3)o2)c(Cl)c1 | inconclusive [inhibitor, single point] |  |
| CN(C)S(=O)(=O)Nc1ccccc1C(N)=O | inconclusive [inhibitor, partial curve] |  |
| COc1cc(NC(=S)N2CCN(c3ccccn3)CC2)c(OC)cc1Cl | inactive |  |
| Cc1cccc(N(CC(=O)Nc2ccc(CC#N)cc2)S(C)(=O)=O)c1 | inactive |  |
| O=c1cc(C(F)(F)F)nc(-c2ccccc2)[nH]1 | inactive |  |
| O=S1(=O)C=C(Sc2nc3cc(Cl)ccc3o2)c2ccccc21 | inconclusive [inhibitor, single point] |  |
| Cc1sc2ncnc(SCC(=O)NC(=O)c3cccn3C)c2c1C | inactive |  |
| COc1ccc(CCNC(=O)c2[nH]c(C)c(C(C)=O)c2C)cc1 | inactive |  |
| CC(C)CNC(=O)CC(c1ccccc1)c1c(O)ccc2ccccc12 (stereo not given) | inconclusive [inhibitor, single point] |  |
| Cc1cc(C)nc(NC(=NCCc2c[nH]c3ccccc23)NC(=O)C(C)(C)C)n1 | inconclusive [inhibitor, single point] |  |
| CC(=O)[C@@H]1[C@@H](C(=O)c2ccc(C)cc2)[C@]2(C(=O)Nc3ccccc32)[C@H]2C=Cc3cc(F)ccc3N12 | inconclusive [inhibitor, single point] |  |
| CCCCCOc1ccc(CSCCNC(=S)Nc2ccccc2)cc1 | inactive |  |
| Cc1ccc(CNC(=O)CSc2nc3ccsc3c(=O)n2Cc2ccccn2)cc1 | inactive |  |
| CCC1(O)CC2CN(CCc3c([nH]c4ccccc34)[C@@](C(=O)OC)(c3cc4c(cc3OC)N(C)C3[C@]45CCN4CC=C[C@@](CC)([C@@H](OC(C)=O)[C@]3(O)C(=O)OC)[C@H]45)C2)C1 (stereo not given in full) | inconclusive [activator, partial curve] |  |
| O=P(c1ccccc1)(c1ccccc1)c1nc(-c2ccccc2)oc1NCc1ccccc1 | inconclusive [inhibitor, single point] |  |
| COc1cc(/C=C2\COC/C(=C\c3cc(OC)c(OC)c(OC)c3)C2=O)cc(OC)c1OC | inconclusive [activator, full curve] |  |
| Cc1noc(C)c1-c1nnc(-c2ccc(OC(F)(F)F)cc2)o1 | inconclusive [activator, single point] |  |
| FC(F)(F)c1nnc(-c2ccccc2)nc1Oc1ccc(Cl)cc1Cl | inactive |  |
| O=C(NCCN1CCN(c2ccccc2)CC1)c1cccn2c(=O)c3ccccc3nc12 | inconclusive [inhibitor, single point] |  |
| Cc1cccc(CSc2nnc(-c3ccccn3)n2N)c1 | inconclusive [inhibitor, single point] |  |
| CCOc1cc(N2CCOCC2)c(OCC)cc1NC(=O)CSc1ncn[nH]1 | inactive |  |
| Cc1ccc(CSc2nc3ccncc3n2CC(=O)Nc2cc(C)cc(C)c2)cc1 | active: 3.16 µM |  |

| Compound | Potency | activity change, negative = inhibition |
| --- | --- | --- |
| CCCN1C(=O)/C(=C2\SC(N3CCCCC3)=NC2=O)c2ccccc21 | inconclusive [inhibitor, partial curve] |  |
| Cc1cccc(NC(=O)C2(c3ccc([N+](=O)[O-])cc3)CCCC2)c1 | inconclusive [inhibitor, single point] |  |
| O=C(NC(Cc1ccccc1)C(=O)O)/C(=C\c1ccco1)NC(=O)c1ccccc1 (stereo not given) | inactive |  |
| CCOC(=O)c1[nH]c2c(c1C)C(=O)CC(c1ccco1)C2 (stereo not given) | inconclusive [activator, full curve, poor fit] |  |
| COC(=O)c1[nH]c2ccc(C)cc2c1NC(=O)CN1CCN(c2ccc(F)cc2)CC1 | inconclusive [inhibitor, single point] |  |
| COc1ccc(/C=N/NC(=O)Cc2cccs2)cc1 | inactive |  |
| Cc1n[nH]c(=S)n1/N=C/c1ccccc1OCc1ccc(Cl)cc1Cl | inconclusive [inhibitor, single point] |  |
| Cc1cccc(C)c1OCc1n[nH]c(=S)n1N | inactive |  |
| CCn1c(=O)c(C(=O)CN2CCCc3ccccc32)c(N)n(Cc2ccccc2)c1=O | inconclusive [inhibitor, partial curve, poor fit] |  |
| CCN(CC)c1ccc2c(c1)OC(N)=C(C#N)C2c1cccnc1 (stereo not given) | inconclusive [activator, full curve] |  |
| COc1ccc(-c2cn(-c3ccc(C)cc3C)c(=O)[nH]2)cc1OC | inactive |  |
| O=C(c1ccccc1)N(Cc1nc2ccccc2c(=O)[nH]1)C1CCCCC1 | inactive |  |
| CSC1=C(C#N)C(c2ccccc2Cl)C2=C(N1)c1ccccc1C2=O (stereo not given) | inconclusive [inhibitor, partial curve] |  |
| CCN(CCCNC(=O)C1CCC(=O)N1Cc1ccccc1Cl)c1cccc(C)c1 (stereo not given) | inconclusive [inhibitor, single point] |  |
| CCOC(=O)C1=CN(CC2CCCO2)C=C(C(=O)OCC)C1c1ccccc1C(F)(F)F (stereo not given) | inconclusive [inhibitor, single point] |  |
| CC1(C)Oc2ccc3ccc(=O)oc3c2/C(=C/Nc2ccc(O)cc2)C1=O | inconclusive [activator, partial curve] |  |
| CN(C1CCCCC1)S(=O)(=O)c1ccc(NC(=S)NC(=O)c2cccs2)cc1 | inconclusive [inhibitor, partial curve] |  |
| O=C(NNC1=Nc2ccccc2SC1)c1ccc(Cl)cc1 | inactive |  |
| CC(C)c1nnc(SCC(=O)NC(C)(C)C)n1C | inactive |  |
| O=C1c2ccccc2C(=O)c2c(NCCCN(CCO)CCO)cccc21 | active: 12.6 µM |  |
| CCc1ccccc1NC(=O)c1nnn(CC(=O)Nc2cccc(C)c2C)c1N | inconclusive [activator, single point] |  |
| Cc1nc2c(sc3nc(N4CCOCC4)c4c(c32)CC(C)(C)OC4)c(-c2ccccc2)c1C(=O)O | inconclusive [activator, partial curve] |  |
| CCCCCc1c(C)nc(Nc2ccc(F)cc2)[nH]c1=O | inconclusive [inhibitor, single point] |  |
| O=c1sc2ccccc2n1COc1ccc(Cl)cc1 | inconclusive [inhibitor, single point] |  |

| Compound | Potency | activity change, negative = inhibition |
| --- | --- | --- |
| S=C(Nc1cccc(Cl)c1)Nc1ccccc1Oc1ccccc1 | inconclusive [inhibitor, single point] |  |
| Cc1cc(/C=C(\C#N)C(=O)OCC(=O)NC(=O)NC(C)(C)C)c(C)n1CCC(C)C | inconclusive [inhibitor, partial curve, poor fit] |  |
| CCN1C(=O)/C(=C/c2cc(C)n(C)c2C)SC1=Nc1ccc(OC)cc1 | inconclusive [inhibitor, single point] |  |
| Brc1cnc2nc(SCc3nc4ccccc4[nH]3)[nH]c2c1 | inactive |  |
| COc1cccc(C2C(C#N)=C(N)SC(c3ccccc3)C2[N+](=O)[O-])c1 (stereo not given) | inactive |  |
| CCCn1c(CCC(=O)O)ccc1-c1ccc(OC)cc1 | inconclusive [inhibitor, partial curve] |  |
| O=C(Nc1ccc2c(c1)OCCO2)c1ccc(Cl)c(S(=O)(=O)N2CCOCC2)c1 | inactive |  |
| COc1nn(CC(=O)N2N=C(C)CC2(O)C(F)(F)F)cc1[N+](=O)[O-] (stereo not given) | inactive |  |
| O=C(Nc1cccc2ccccc12)N1CCCN(c2c(Cl)cncc2Cl)CC1 | inconclusive [activator, partial curve] |  |
| O=C1CSC(c2ccc(Cl)cc2)N1C1CCCCC1 (stereo not given) | inconclusive [inhibitor, partial curve] |  |
| Cn1nnnc1SCC1=C(C(=O)O)N2C(=O)[C@@H](NC(=O)[C@H](O)c3ccccc3)[C@H]2SC1 | inactive |  |
| O=C(O)c1cccc(NC(=O)c2cccc(NC(=O)C3CCCO3)c2)c1 (stereo not given) | inconclusive [inhibitor, single point] |  |
| COc1cccc(-c2nnc3sc(-c4ccco4)nn23)c1 |  | inactive: 9.45% [at 7.67 µM] |
| O=C(NCc1ccco1)c1nc2c(nnn2Cc2cccc(Cl)c2)c(=O)[nH]1 | inactive |  |
| CCOC(=O)c1nc(C)sc1-c1ccnn1S(=O)(=O)c1ccc(Cl)cc1Cl | inconclusive [activator, partial curve] |  |
| O=C(COC(=O)c1ccccc1-c1nc2ccccc2s1)Nc1ccccc1C(F)(F)F | inconclusive [inhibitor, single point] |  |
| CC(NC(=O)CCC(=O)NC(C)C1COc2ccccc2O1)C1COc2ccccc2O1 (stereo not given) | inconclusive [inhibitor, single point] |  |
| CCOc1ccc(N2CSC3=C(C#N)C(c4ccco4)CC(=O)N3C2)cc1 (stereo not given) | inconclusive [inhibitor, single point] |  |
| CCCC(=O)O[C@]1(C(=O)COC(C)=O)CC[C@H]2[C@@H]3C[C@H](F)C4=CC(=O)C=C[C@]4(C)[C@@]3(F)[C@@H](O)C[C@@]21C | active: 2.51 µM |  |
| COc1ccc(C(=O)NC2=NCCS2)cc1S(=O)(=O)N1CCCCC1C (stereo not given) | inactive |  |
| O=C(Cn1c(CSc2ccccc2)nc2ccccc21)Nc1ccccc1 | inconclusive [inhibitor, partial curve] |  |
| Oc1cccc(Nc2nc(O)c(/C=C3\C=Nc4ccccc43)s2)c1 | inconclusive [inhibitor, single point] |  |
